Data: the supplement of paper PMC3334620
In all, about 33,000 sequences were measured (“E-score (-0.5 to 0.5)”: median about -0.041, highest 2% from about 0.37 on). This is one part of the list.

Biological target: T1, Ecm22 (UniProt Q05958)
T1 sequence: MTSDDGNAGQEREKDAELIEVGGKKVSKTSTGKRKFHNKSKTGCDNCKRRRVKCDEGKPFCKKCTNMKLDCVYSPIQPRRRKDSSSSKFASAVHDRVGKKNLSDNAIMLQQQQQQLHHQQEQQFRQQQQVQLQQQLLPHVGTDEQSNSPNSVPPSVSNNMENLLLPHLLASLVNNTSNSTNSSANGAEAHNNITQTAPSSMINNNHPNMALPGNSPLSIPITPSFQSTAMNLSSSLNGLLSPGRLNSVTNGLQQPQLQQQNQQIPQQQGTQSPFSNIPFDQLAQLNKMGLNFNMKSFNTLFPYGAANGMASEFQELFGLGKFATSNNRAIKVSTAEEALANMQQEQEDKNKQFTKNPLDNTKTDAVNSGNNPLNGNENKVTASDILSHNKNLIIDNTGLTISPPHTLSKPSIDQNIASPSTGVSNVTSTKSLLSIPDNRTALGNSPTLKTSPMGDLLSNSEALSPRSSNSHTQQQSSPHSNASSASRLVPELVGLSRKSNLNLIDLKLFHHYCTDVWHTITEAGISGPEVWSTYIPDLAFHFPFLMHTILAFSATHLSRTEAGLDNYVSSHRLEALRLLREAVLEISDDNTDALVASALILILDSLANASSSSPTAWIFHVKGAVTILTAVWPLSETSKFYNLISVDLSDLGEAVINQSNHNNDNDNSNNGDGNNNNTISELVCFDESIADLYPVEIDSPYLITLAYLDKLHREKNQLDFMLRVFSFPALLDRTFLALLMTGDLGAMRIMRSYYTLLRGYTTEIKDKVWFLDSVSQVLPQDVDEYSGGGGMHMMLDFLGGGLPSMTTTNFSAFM
Assay: PBM E-score (8-mer binding enrichment) (E-score (-0.5 to 0.5)); higher = stronger / more preferred TF binding; most listed sequences are background and not binding sites
Conditions: protein concentration: 200 nM; construct: GST-full length
Method: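 Universal 'all 10-mer' protein binding microarrays (Agilent AMADID 015681) probed with GST-tagged S. cerevisiae TFs (full-length or DBD) made by in vitro transcription/translation (PURExpress), about 100-200 nM. Bound TF was detected with fluorescent anti-GST. Each ungapped 8-mer (which stands for itself and its reverse complement) is scored by the PBM enrichment score (E-score), a modified Wilcoxon-Mann-Whitney statistic from -0.5 to +0.5, computed with the Universal PBM Analysis Suite. Scale: above 0.35 generally sequence-specific binding.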

Sequence	PBM E-score
GCCAACCA	-0.0776
AGATTAGG	-0.0524
ACGTAGCA	0.0433
CGCCTTCC	-0.138
CGACGACC	0.154
AAGGTTAA	-0.127
AGCCTTTG	-0.191
AACGGAAT	0.169
ACAGCCGA	-0.122
GAATGTAA	-0.0287
CGCGCTAA	0.122
CGAGCACA	0.225
ATCCTGTG	-0.15
CCAGTCGG	-0.0722
GATAGACA	-0.00063
AATAATTA	0.0914
ATGGGCGG	-0.0723
ATTAGTAC	0.137
AAGTATGG	-0.193
CTAAGATC	-0.0418
CCCAATAG	-0.102
AGCGTTTC	-0.0147
GGTAGGTA	-0.00227
GCGTCCGA	0.18
CCACATTC	-0.207

Sequence	PBM E-score
GCAGATCC	-0.152
AGGGGGCC	-0.295
CATTAGCA	-0.0515
TGACCTAA	0.1
CTTTCCGC	-0.0543
AGGTGACT	-0.0719
AGCTCTCG	0.132
ATCTGACA	-0.139
CCATGTAG	-0.262
AATGCCCT	-0.259
AAGAAAGA	-0.00143
GGTGCCGA	-0.072
CTAGAAAC	-0.117
ACGGTCGG	0.274
TGATCGCA	-0.0274
AGATGAGG	-0.186
GAAACCTC	0.0577
AGGAGTGC	-0.0873
CGTATCTA	0.326
CAGGTAAC	-0.0723
ACAGAAAC	0.00059
CGATATCG	0.273
CCCTCAAC	-0.248
TTACGAAA	0.403
AACTATTG	-0.107

Sequence	PBM E-score
AAGCCATT	-0.0128
AGTAACCC	0.0283
CCCAAAGC	-0.156
CCTCTCCG	-0.264
AGTGACAA	-0.0461
AGTAGGCA	0.0082
TCACGACA	0.00255
ACGACTCG	0.39
CTCGGGTC	0.276
AGGAGGCC	-0.266
GAATATAA	-0.113
CGGTAATA	0.0412
ATAGCTTC	0.0331
GATACTAC	-0.0378
CAGGTGGC	-0.214
ATAGTTGC	-0.00752
ACCAGCCG	-0.0155
ACTTGAAT	-0.108
CGACCTCC	0.203
TACAGAAA	0.039
CGTAGTCA	0.0196
CCAGTTCA	-0.146
GAGGATAC	0.0845
CCTCAGTA	0.00549
AATCATTA	-0.0676

Sequence	PBM E-score
CAAGACTC	-0.126
CATCGCGA	0.162
CGGCACCC	-0.186
CCGGTCAA	-0.0857
ATAAGGCG	-0.0006
CGGTCAAA	0.219
GGAGGAAC	0.149
AGCTCAAA	-0.0469
CGACGTGA	0.185
AGGCTTGA	-0.117
ATCTCAAG	-0.235
CCGCTCAA	-0.0797
AGACACTG	-0.0372
ATCAGCGC	-0.18
GCCTCCGA	-0.182
CTGCATCA	-0.101
AAAGGGGT	-0.196
CCTACTTC	-0.017
AACAACGG	-0.00412
ATATACAC	0.125
CTAAATAG	-0.157
GATCGGGA	0.0412
AGTCAATG	-0.0767
AGGGGAAG	-0.0801
CCTGTGTC	-0.165

Sequence	PBM E-score
CGTAGTAC	0.276
CCCCCGGC	-0.323
ATATGGAG	0.058
GATCCCGA	-0.0329
GTCCATCA	-0.219
AGGTCCCG	0.14
GTAAGGCA	-0.0585
CACGGCTG	-0.351
GTACCGAA	0.212
CGCACCAA	0.135
ACGAATTC	0.269
GGGATCGA	0.138
ACCGTACC	0.416
CTGGGAGA	-0.143
CAGCCCCC	-0.181
AGCTGGGG	-0.297
GGCTGAGA	-0.268
AAAAACAA	0.0897
CGTCCTCA	-0.127
GACAACTC	0.0211
ACCCCCTC	-0.274
CCATGGTC	-0.0723
ATGCAGAG	-0.159
ATGGCGAA	-0.0108
TCTCTGCA	-0.163

Sequence	PBM E-score
CGGGGATA	0.0242
CCACATCG	0.126
AAGTTGTA	0.112
CGATTATC	0.152
AAACAACA	-0.0804
ATAATTTG	0.0315
ACGCCACC	-0.0558
TCTGAAGA	-0.177
GCTCGATA	0.0339
AGATCTCA	-0.00483
CGGGGTCC	-0.139
GAGAACGA	0.422
AAGGGTCG	0.102
CGCATCCA	0.0265
GTAGTGAC	-0.103
GGCTGTAA	-0.0621
AGGCATTA	-0.148
CATCGACG	-0.0608
GCTTATGA	0.0131
GGCCATGA	-0.143
GTTGTACA	0.0399
GCCGTTGA	-0.138
ACGACGCT	0.38
GCTCGAGA	-0.122
CCCGTTAA	0.256

Sequence	PBM E-score
ACAATAAA	-0.0297
ATAGCTAC	0.0664
AACATTGG	-0.346
ACTGTCAC	-0.0424
CAGGGTTA	-0.161
AGACATCA	-0.199
AGGTGTTA	-0.14
CGACGTCC	0.17
ACCGTAAG	0.212
CCGCGGGA	-0.0893
CAAAAGTA	-0.0653
AAGTCTCG	0.236
ATGGGCTA	-0.142
CCGGAGGA	-0.171
ACTAACTA	0.0677
AGTTGGGC	-0.0308
GGTTTTTA	-0.102
GACCGAAA	0.122
CTCTCCAA	-0.0556
ATGGCACA	-0.179
CCGTTGAG	-0.262
TCTTTTAA	0.0278
AGGCGGTG	-0.1
CAGCCCTC	-0.11
CCTCTGCA	-0.0882

Sequence	PBM E-score
ACTAGCCG	-0.0608
TCATGCCA	-0.0357
CTATGGCA	-0.179
CGCTGAGC	-0.0955
CCTACGAC	0.232
TCGTAAAA	0.476
ACACGGCC	-0.139
CCAACCAA	-0.0915
CTAATCGC	-0.0155
CGAGAAAA	0.183
CAGCCACC	-0.124
GTGAGGTA	-0.156
CTCAGACC	-0.272
AGTAATAT	0.184
CACAAAAG	-0.00092
CAGGGCTC	-0.219
GCGAGGCA	0.296
TATGAACA	0.00828
AAGACGCT	-0.0823
ATTTAATA	0.104
AAATGGAA	-0.19
AAGAAGCA	-0.162
GCGCTACC	-0.0587
TTATCAAA	0.0809
ACTCGAAT	0.0074

Sequence	PBM E-score
CGTAGCGA	0.382
CACACGAG	0.169
ATTTTGTA	0.0586
AAACACGA	0.174
ATTCTCCG	0.0746
AGATTATA	0.00651
CAGCTTCA	-0.0873
TCAGCGAA	0.0118
ATTGCGGA	-0.0857
CCGCAAGG	-0.0036
CTAACGCA	-0.0321
GAGTCCAC	-0.165
AGTCTGAC	-0.132
GATGGCAC	-0.00986
AAAACTGA	-0.157
CGCGACCA	0.212
GGTGGGTA	-0.0878
ATCCTTCG	0.157
CACGATTA	0.1
AGTCGTTC	0.425
AGATGGAT	-0.344
CACCTCGA	0.126
ACTCAAAA	0.014
CCTGCGCC	-0.243
ATTCTTAC	-0.026

Sequence	PBM E-score
CCCAGGTC	-0.218
ATTAGAGG	-0.277
TCACTGAA	-0.101
AAAACTCG	0.182
CATCTCTC	-0.101
CCCCAGAC	-0.213
ACGCAACG	0.308
ATATAGAC	0.0182
CACCGTAA	0.277
AGAACGGA	0.0615
AGTCCGAC	-0.141
ATGGAGAA	-0.0758
GGAAATAC	0.11
AGCGTTAC	0.0657
CTGTCAGA	-0.0438
CCTCGACA	-0.113
CTACAGTA	-0.0824
ATCCGTAG	-0.0249
TAAGATGA	-0.197
CTGCAATC	-0.0831
GACAATAC	0.0828
GGCAACGA	0.417
CGAAGGGA	0.0402
CGGTCTCC	-0.0719
ACGATACG	0.383

Sequence	PBM E-score
CTAGTCCA	-0.328
CCCGACCG	0.168
GAATCGGA	0.141
AGTTTGAT	0.0234
CAAAGTGA	0.00568
CAACCCCA	-0.125
CAGACACC	-0.162
AGACGTAT	0.181
GGCGCACC	0.0764
CCAAACCA	-0.234
AGTGATCA	0.00502
GTTATTAA	0.168
AACTGCAG	-0.0539
AACGCGAG	0.231
TAGGATCA	0.0345
AAACACTT	0.0131
ATGTCAAA	-0.00618
GACACTTA	-0.0575
GCTGCAGA	0.0524
GCAACCCA	-0.121
GCCCCGGA	-0.0734
ACACGCAA	0.0485
AGTAGTGG	-0.177
CGGGTCTA	0.0514
ACTGACCC	-0.217

Sequence	PBM E-score
ACATGTCA	-0.237
AGGCGGGC	-0.204
AATTAGAA	-0.051
ATAAAGGC	-0.108
ACCCGTAC	0.374
AGAACTCA	-0.107
CTTGAAGC	-0.181
GAACTCAC	0.00794
ATAGGCGC	0.0231
ATTCCAGC	-0.149
ACCCCTAG	-0.186
ACGTATAA	0.412
CCCCGTCA	-0.221
AGTCTTCC	-0.216
GAATTTGC	-0.123
GGTGAGAC	-0.232
CGGATGCA	-0.154
AGGAAAGC	-0.00904
ACTAAAGT	-0.187
CGACAATC	0.116
AGCACCAC	-0.203
CATAAAGA	-0.0522
CTACGAAA	0.302
GCCGTGCC	-0.0282
TCAGTACA	0.0565

Sequence	PBM E-score
AATACCGT	0.197
CTCTGACA	-0.113
AACTGCAA	-0.138
ATGTTCCC	-0.0758
CACCGTGC	-0.0452
CCGCGGAA	0.0414
CCCGGACC	-0.0633
CTAGAGTA	-0.132
CTCCCTCA	-0.162
AACCCTTC	0.0412
ATCAATAG	-0.12
AATTCGTC	0.0772
AAATGGGG	-0.296
CCACGTTA	0.0599
ATAGGACA	0.0635
ACTATCCA	-0.0129
CGCGCAAC	0.0984
ATGGACCA	0.0442
CGGCGGAA	0.0461
AATCTAAT	-0.0563
GTGTGTTA	0.00165
ATCCGTGC	-0.0378
GAGGACCA	-0.0372
CATAGGAA	-0.0367
GGCTATGA	-0.21

Sequence	PBM E-score
TATTTGGA	-0.146
CCCAGACA	-0.0677
CCACGAGA	-0.117
AGTCCTCC	-0.137
GCACTGAC	-0.0399
GCCCTGGA	-0.111
CCCGATGC	-0.0981
ACACAAAC	0.0625
ACACCAGT	-0.156
AGAACCCA	-0.131
AGGCTCGC	0.208
AACGTAAT	0.0154
CGAAGGAA	0.199
ATCGGAGC	0.0642
ATAAGGGA	-0.0565
GAGGGACA	0.0905
ATGTTAAT	0.0381
ATTCTAAA	0.095
CCATTGAC	-0.0157
